Where “and” joins values, the source holds several entries; their conditions need not be identical. Equal entries are not always repeated. Screen size: about 420,000 compounds; about 64,000 (15%) were called active. Inconclusive results, whose numbers are uncertain, are shown with a selection of clear calls. Calls follow the shape of the dose curve; as a rule, active = well fitted inhibition curve with a large enough effect; inconclusive = small, poorly fitted or top-dose-only effect; inactive = flat fitted curve, though single readings scatter. Where the call is inconclusive, the potency comes from a doubtful curve fit.
Experiment: qHTS for Inhibitors of human tyrosyl-DNA phosphodiesterase 1 (TDP1): qHTS in cells in absence of CPT; also: nearly all actives have a fitted effect of over 55% in size
Conditions: DT40 Tdp1-/- hTDP1 cells, no CPT, ATP luminescence, 48 h; activity change, negative = growth inhibition: at 46.2 µM (top of the series) unless noted
How it was run: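 Seeded 400 DT40-hTDP1 cells/well (vehicle DMSO, no 20 nM CPT); pinned compounds; ≥48 hr at 37 °C; CellTiter-Glo luminescence as viability measure.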
% is scaled to controls: 0 for no effect and ±100 for the full control effect; potency is read from the fitted curve at half-maximal effect; tags tell the direction and shape of the fitted curve.

| SMILES | Potency | activity change, negative = growth inhibition |
| --- | --- | --- |
| COc1ccc(OC)c(Nc2nc(NCCCN(C)C)nc(N)c2[N+](=O)[O-])c1 | active: 4.61 µM | – |
| O=C(NNC(=S)NC(=O)c1ccccc1)c1cccc([N+](=O)[O-])c1 | inconclusive: 18.4 µM [inhibitor, single point] | – |
| CCn1cc(S(=O)(=O)c2cccc(C)c2)c(=O)c2cc(F)c(N3CCN(c4ccccc4)CC3)cc21 | inconclusive: 29.1 µM [inhibitor, single point] | – |
| COc1cc(/C=N/NC(=S)NC2CC3CCC2C3)ccc1O (configuration not stated) | inconclusive: 18.4 µM [inhibitor, single point] | – |
| O=C(COC(=O)C1(c2ccccc2F)CCCC1)N1CCNC1=O | inactive | – |
| COc1ccc(NC(=O)c2cccc(S(=O)(=O)N3CCN(C)CC3)c2)c(OC)c1 | inactive | – |
| COCCCn1c(=O)c2sccc2n2c(CCCC(=O)NCc3ccc(F)cc3)nnc12 | inconclusive: 23.1 µM [inhibitor, single point] | – |
| Cn1c(=O)c(=O)n(C)c2cc([N+](=O)[O-])c([N+](=O)[O-])cc21 | active: 18.4 µM | – |
| Cc1ccc(OCC(=O)Nc2ccc3c(c2)OCO3)c(C)c1 | inconclusive: 29.1 µM [inhibitor, single point] | – |
| CCCCCCn1c(N2CCN(c3cccc(Cl)c3)CC2)nc2c1c(=O)[nH]c(=O)n2C | active: 23.1 µM | – |
| COc1ccc(-n2ncc3c(N4CCc5ccccc54)ncnc32)cc1 | – | inconclusive: -31.4% [inhibitor] |
| Cc1ccc(NC(=O)Cn2cc(S(=O)(=O)N3CCC(C)CC3)c3ccccc3c2=O)c(Br)c1 | inactive | – |
| Cc1cccc(Oc2ccc3c(c2)Oc2ccccc2NC3=O)c1 | inconclusive: 29.1 µM [inhibitor, single point] | – |
| CCOC(=O)N1CCN(C(=O)c2cccc(OC)c2O)CC1 | inactive | – |
| CCCCNC(=O)CCCn1c(=O)[nH]c2ccc(Br)cc2c1=O | inactive | – |
| O=C(NCc1ccc(F)cc1)C(c1ccc(Cl)cc1)N(C(=O)c1csnn1)C1CC1 (configuration not stated) | inconclusive: 25.9 µM [inhibitor, partial curve] | – |
| COc1ccc(-c2cc(C(=O)NCC(c3ccccc3)N(C)C)c3ccccc3n2)cc1OC (configuration not stated) | inconclusive: 29.1 µM [inhibitor, single point] | – |
| COC(=O)c1ccc(N2C(=O)CC(N(C)Cc3ccccc3)C2=O)cc1 (configuration not stated) | inconclusive: 29.1 µM [inhibitor, single point] | – |
| CC(C)CCNC(=O)NC(=O)COC(=O)/C=C/c1cnc2ccccc2n1 | inconclusive: 20.6 µM [inhibitor, partial curve, poor fit] | – |
| O=C(COC(=O)/C=C/c1cccc(Br)c1)Nc1cccc(S(=O)(=O)NC2=NCCC2)c1 | active: 4.11 µM | – |
| CCN(CC(=O)Nc1ccc2c(c1)OCCO2)C(=O)c1ccccc1Br | inconclusive: 23.1 µM [inhibitor, single point] | – |
| COC(=O)c1cc(C#N)c(NCc2ccccc2)nc1C | active: 16.4 µM | – |
| Cc1ccc(Cl)c(OCC(=O)Nc2ccccc2C(=O)NC2CC2)c1 | – | inconclusive: -31.4% [inhibitor] |
| CS(=O)(=O)c1ccc(Cl)c(NC(=O)c2cc(S(=O)(=O)N3CCOCC3)ccc2N2CCCC2)c1 | inactive | – |

| SMILES | Potency | activity change, negative = growth inhibition |
| --- | --- | --- |
| CCOC(=O)c1c(C)nc(C)c(C(=O)OCC)c1-c1cccnc1 | inconclusive: 23.1 µM [inhibitor, single point] | – |
| CCOc1ccccc1NC(=O)CCC(=O)O | inactive | – |
| CCCCN(CCCNC(=O)c1c(C)oc2nc[nH]c(=O)c12)Cc1ccccc1 | inconclusive: 25.9 µM [inhibitor, single point] | – |
| CCOc1ccc(-c2ncncc2-c2ccc(OC)c(OC)c2)c(O)c1 | inactive | – |
| CC(CO)NS(=O)(=O)c1cc(Cl)ccc1F (configuration not stated) | inactive | – |
| COc1ccccc1C(=O)Nc1ccc2nc(SCC(=O)N(C)C)sc2c1 | inconclusive: 9.2 µM [inhibitor, partial curve] | – |
| COc1ccc(-n2nnnc2SCC(=O)Nc2ccc3c(c2)OCCO3)cc1OC | active: 9.2 µM | – |
| Cc1ccc(NC(=O)COC(=O)c2ccc[n+]([O-])c2)c(Br)c1 | inactive | – |
| O=C(NCc1ccccc1C(F)(F)F)c1cccc2c1C(=O)c1ccc(N3CCOCC3)cc1S2(=O)=O | inactive | – |
| CS(=O)(=O)Nc1cccc(C2=NN(C(=O)c3ccccc3Cl)C(c3ccccc3O)C2)c1 (configuration not stated) | active: 29.1 µM | – |
| COc1ccc(OCc2cc(C(=O)N(C)C(C)c3ccon3)no2)c(Cl)c1 (configuration not stated) | inconclusive: 23.1 µM [inhibitor, single point] | – |
| NC(=O)C1CCN(C(=O)COc2cccc3cccnc23)CC1 | inactive | – |
| Cc1ccc(Nc2c(-c3cccnc3)nc3ccc(Br)cn23)cc1 | inconclusive: 18.4 µM [inhibitor, single point] and inconclusive: 29.1 µM [inhibitor, partial curve, poor fit] | – |
| O=C(CCc1ccccc1)NCCc1ccc(F)cc1 | inactive | – |
| COc1ccc(NC(C)=O)cc1NC(=O)CSc1nc2ncccc2[nH]1 | active: 18.4 µM | – |
| CNC(=O)c1c(NC(=O)c2ccc(S(=O)(=O)N3CCCCC3C)cc2)sc2c1CCC2 (configuration not stated) | active: 14.6 µM | – |
| Cc1cc(NC(=O)c2ccco2)ncc1NC(=O)CCc1ccccc1 | inconclusive: 29.1 µM [inhibitor, single point] | – |
| Cc1cnc(C(=O)OCC(=O)Nc2cccc(S(=O)(=O)N3CCOCC3)c2)cn1 | inactive | – |
| COCc1ccc(C(=O)N2CCCC(C(=O)c3cccc(C(F)(F)F)c3)C2)o1 (configuration not stated) | inconclusive: 20.6 µM [inhibitor, single point] | – |
| O=C(CN1CCN(S(=O)(=O)c2ccc(Br)s2)CC1)NCC1CCCCC1 | inconclusive: 29.1 µM [inhibitor, single point] | – |
| CC1=C(n2nnc([N+](=O)[O-])n2)C(c2cccnc2)C(C#N)=C(N)O1 (configuration not stated) | inconclusive: 23.1 µM [inhibitor, single point] | – |
| COc1cc(OC)c(N2CC(C(=O)Nc3cc(Cl)ccc3N3CCOCC3)CC2=O)cc1Cl (configuration not stated) | active: 3.66 µM | – |
| Cc1cc(N=Cc2c(O)n(-c3cccc(Cl)c3)c(=O)c3ccccc23)no1 | active: 20.6 µM | – |
| COC(=O)c1sc(=S)n(-c2ccc(Cl)cc2)c1C | inconclusive: 29.1 µM [inhibitor, single point] | – |

| SMILES | Potency | activity change, negative = growth inhibition |
| --- | --- | --- |
| CCC[C@H]1CCCC/C=C\CCCC(=O)OCCN1C(=O)OC(C)(C)C | inconclusive: 29.1 µM [inhibitor, single point] | – |
| O=C(O)c1cc(/C=C/C(=O)c2cc(F)ccc2O)c2c(c1)COCO2 | inconclusive: 14.6 µM [inhibitor, single point] | – |
| CN(C)CC/C=C1/c2ccc(F)cc2Sc2ccc(Cl)cc21 | active: 16.4 µM | – |
| CS(=O)(=O)Nc1ccc(C2=NN(S(=O)(=O)c3ccccc3)C(c3cccs3)C2)cc1 (configuration not stated) | inconclusive: 25.9 µM [inhibitor, single point] | – |
| CCOC(=O)c1sc(NC(=O)c2c(OC)cccc2OC)nc1C | inactive | – |
| COc1ccc(-c2nnc(SCC(=O)N(C)Cc3ccccc3)o2)cc1OC | inconclusive: 29.1 µM [inhibitor, single point] | – |
| CCCC(=O)c1cc(F)c(N2CCN(S(=O)(=O)c3ccccc3)CC2)cc1C | active: 11.2 µM | – |
| C[C@@H]1ON(C)[C@H]2C[C@H]3c4[nH]c5ccccc5c4CCN3C(=O)[C@@H]12 | inactive | – |
| N/C(Cc1ccc(Cl)cc1)=N\OC(=O)Cc1ccc([N+](=O)[O-])cc1 | inconclusive: 18.4 µM [inhibitor, single point] | – |
| O=C(Nc1nccs1)C1CCN(S(=O)(=O)c2ccccc2)CC1 | inactive | – |
| Cc1ccc2cccc(N=Cc3c(C)[nH]n(-c4ccccc4)c3=O)c2n1 | inconclusive: 18.4 µM [inhibitor, single point] | – |
| CCc1cc2cc(C)cc(C)c2nc1SCC(=O)N1CCN(C(=O)c2ccco2)CC1 | inconclusive: 29.1 µM [inhibitor, single point] | – |
| CCc1ccc(S(=O)(=O)NCCc2csc(-c3cccnc3)n2)s1 | inconclusive: 29.1 µM [inhibitor, single point] | – |
| COC(=O)c1ccc(N2OC3(C)C=CC2CC3)cc1 (configuration not stated) | inactive | – |
| N#Cc1cccc(OC(=O)c2ccc3c(=O)n4c(nc3c2)CCC4)c1 | inactive | – |
| COc1cccc(-c2nccc(NCCc3c[nH]c4ccc(OC)cc34)n2)c1 | inconclusive: 29.1 µM [inhibitor, single point] | – |
| COc1cc(CNc2cccc(F)c2)cc(Br)c1O | inconclusive: 29.1 µM [inhibitor, single point] | – |
| O=C(COC(=O)C1CC1)Nc1ncc(Cl)cc1Cl | inconclusive: 16.4 µM [inhibitor, partial curve] | – |
| COC(=O)c1[nH]c2cc(OC)ccc2c1NC(=O)CN1CCC(C(N)=O)CC1 | inactive | – |
| COc1ccc(S(=O)(=O)N2CCOCC2)cc1NC(=O)C1CCCCN1S(=O)(=O)c1ccccc1 (configuration not stated) | inconclusive: 18.4 µM [inhibitor, single point] | – |
| CSc1nnc(Cc2sc(-c3ccccc3)nc2-c2ccccc2)o1 | inconclusive: 23.1 µM [inhibitor, single point] | – |
| Cc1[nH]c(=S)[nH]c(=O)c1CCOc1ccccc1 | inconclusive: 23.1 µM [inhibitor, single point] | – |
| COc1cc(/C=C/C(=O)O)cc(S(=O)(=O)Nc2ccccc2Cl)c1OC | inactive | – |
| COc1ccc(C)cc1-n1nnc(C(=O)Nc2cccc(SC)c2)c1C | inconclusive: 20.6 µM [inhibitor, single point] | – |
